# Measured values taken from PubChem BioAssay AID602310 (National Center for Advancing Translational Sciences (NCATS), 2012).
# The whole screen tested about 410,000 compounds, of which about 310 (0.076%) were called active. The shares of active, inactive and inconclusive entries below differ from those in the screen. Calls follow the shape of the dose curve; as a rule, active = well fitted curve in the direction sought with a large enough effect; inconclusive = small, poorly fitted or top-dose-only effect; inactive = flat fitted curve, though single readings scatter. Where the call is inconclusive, the potency comes from a doubtful curve fit.
# Molecular target: DNA dC->dU-editing enzyme APOBEC-3G (Homo sapiens) (UniProt Q9HC16)
# Test: qHTS for Inhibitors of Vif-A3G Interactions: qHTS; also: nearly all actives have a fitted effect of over 60% in size
# Conditions: HeLa A3G-eYFP + Vif (tagged APOBEC3G with the HIV-1 protein that degrades it), YFP fluorescence, overnight; series mostly up to 46.1 µM
# How it was run: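 Read-out is eYFP fluorescence (Ex 488/Em 500-530) from Vif-expressing HeLa A3G-eYFP cells; more signal means A3G escaped Vif-mediated degradation. Cells plated overnight, compound pinned in, incubated overnight at 37 deg C.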
# Potency is read from the fitted curve at half-maximal effect; tags tell the direction and shape of the fitted curve.
# Chain of UniProt Q9HC16 (Q9HC16 whole entry, looked up): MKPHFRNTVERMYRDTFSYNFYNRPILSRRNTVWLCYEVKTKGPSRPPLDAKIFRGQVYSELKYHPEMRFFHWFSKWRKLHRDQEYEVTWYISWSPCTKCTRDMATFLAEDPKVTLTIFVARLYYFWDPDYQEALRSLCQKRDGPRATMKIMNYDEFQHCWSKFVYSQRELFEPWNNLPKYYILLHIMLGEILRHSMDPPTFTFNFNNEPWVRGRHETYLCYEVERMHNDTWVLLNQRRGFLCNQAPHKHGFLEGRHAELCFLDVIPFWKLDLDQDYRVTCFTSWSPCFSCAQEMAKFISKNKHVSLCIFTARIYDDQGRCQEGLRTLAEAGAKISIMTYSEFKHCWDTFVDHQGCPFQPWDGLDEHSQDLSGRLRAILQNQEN
row,Compound,Potency
1,CCOc1ccc(Cl)cc1-c1cc(C(=O)Nc2ccc(OC)nc2)[nH]n1,"inconclusive: 35.5 µM [inhibitor, partial curve, poor fit]"
2,Cc1sc(C(C2C(=O)CC(C)(C)CC2=O)C2C(=O)CC(C)(C)CC2=O)cc1[N+](=O)[O-],"inconclusive: 35.5 µM [inhibitor, single point]"
3,CC(=O)Nc1ccc(SCC(=O)NC(=O)c2ccccc2Br)cc1,inactive
4,COc1cc(-c2cc(C(=O)NCc3ccc(S(N)(=O)=O)cc3)c3ccccc3n2)cc(OC)c1OC,"inconclusive: 20 µM [inhibitor, single point]"
5,CS(=O)(=O)c1nc(-c2ccc(F)cc2)cc(C(F)(F)F)n1,"inconclusive: 11.2 µM [inhibitor, partial curve]"
6,CCc1cc(C(=O)NNC(=O)CCl)sc1C,"inconclusive: 25.1 µM [inhibitor, single point]"
7,N#CC1=C(N)Oc2cc(N)ccc2C1c1ccc(F)cc1F (stereo not drawn),active: 12.6 µM
8,O=C(c1ccc(CS(=O)c2ccccc2Cl)o1)N1CCN(c2ccccc2)CC1 (stereo not drawn),"inconclusive: 1.12 µM [inhibitor, full curve, poor fit]"
9,Cc1oc2c(c1C(=O)Nc1ccccc1Br)C1=NCCN1C=N2,"inconclusive: 11.2 µM [inhibitor, single point]"
10,CCOC(=O)C(NC(=O)NCc1ccccc1)(OCC)C(F)(F)F (stereo not drawn),"inconclusive: 25.1 µM [inhibitor, single point]"
11,COc1ccccc1C(=O)Nc1nnc(CCc2ccccc2)s1,"inconclusive: 2.82 µM [inhibitor, full curve, poor fit]"
12,COC(=O)c1ccc(N2CCC(C)CC2)c(N)c1,inactive
13,O=C(Nc1ccccc1-c1ccccc1)C1CCCC1,"inconclusive: 35.5 µM [inhibitor, single point]"
14,CCOC(=O)c1cc(-c2ccc(OC)cc2)n(CCC(=O)NCc2ccccc2OC)c1C,inactive
15,C#CCOCCOCCOCCNc1nc(N2CCOCC2)nc(N2CCN(C(=O)[C@H](Cc3cc4ccccc4[nH]3)n3cc([C@@H](N)Cc4ccc(O)cc4)nn3)CC2)n1,inactive
16,CC(=O)Nc1ccc(S(=O)(=O)N2CCN=C2SCc2cccnc2)cc1,inactive
17,CC(=O)Oc1ccc(Cn2cnc3cc4ccccc4cc32)cc1,inactive
18,Cc1ccc(C)c2[nH]c(=O)c(CN(Cc3ccco3)C(=O)Nc3ccccc3)cc12,inactive
19,CCOC(=O)C1=C(C)c2ccccc2N(C(=O)OC)C1(C)C(=O)OCC (stereo not drawn),"inconclusive: 35.5 µM [inhibitor, single point]"
20,COc1cccc2nc3cc(C)c(C)cc3nc12,inactive
21,Cc1[nH]c2ccccc2c1/C=C/C(=O)c1ccncc1,"inconclusive: 20 µM [inhibitor, single point]"
22,N#C/C(=C/c1ccc(-c2ccccc2)o1)c1nc(-c2cccs2)cs1,"inconclusive: 2.82 µM [inhibitor, partial curve, poor fit]"
23,COc1cc(C(=O)c2cocc2C(=O)c2ccc3c(c2)OCO3)cc(OC)c1OC,"inconclusive: 2 µM [inhibitor, full curve, poor fit]"

row,Compound,Potency
1,COc1ccc2c(C(=O)c3ccc(C)cc3)n(Cc3ccc(C(N)=O)cc3)[n+]([O-])c2c1,inactive
2,Cc1cc(C)n(-c2ccc(NC(=O)C3CCCCN3Cc3cccc4c3OCO4)cc2)n1 (stereo not drawn),"inconclusive: 8.91 µM [inhibitor, partial curve]"
3,CCC(CC)C(=O)c1c[nH]c(C(=O)NN)c1,"inconclusive: 7.08 µM [inhibitor, partial curve, poor fit]"
4,COc1ccc(/C=N/NC(=O)CCn2cnc(-c3ccccc3)c2-c2ccccc2)cc1OC,"inconclusive: 35.5 µM [inhibitor, single point]"
5,Cc1nnc(N2CCCC(C(=O)Nc3cccc(C(F)(F)F)c3)C2)c2nn(-c3ccccc3)c(C)c12 (stereo not drawn),"inconclusive: 35.5 µM [inhibitor, single point]"
6,COc1ccc2[nH]c(C)c(CCNC(=S)Nc3cccc(C)c3)c2c1,inactive
7,COc1ccc(-c2noc(-c3ccc(N4CCN(c5ccc(OC)cc5)CC4)c([N+](=O)[O-])c3)n2)cc1,inactive
8,CC(=O)c1ccc(NC(=O)C(C)OC(=O)/C=C/c2ccco2)cc1 (stereo not drawn),"inconclusive: 25.1 µM [inhibitor, single point]"
9,CC(C)S(=O)(=O)c1oc(-c2ccc(F)cc2)nc1S(=O)(=O)c1ccccc1,"inconclusive: 10 µM [inhibitor, partial curve]"
10,O=C(CC1Sc2ncnn2C1=O)Nc1ccc(Cl)cc1 (stereo not drawn),inactive
11,Cc1cccc(NC(=O)c2sc3nc4c(cc3c2N)CCCCCC4)c1C,"inconclusive: 0.355 µM [inhibitor, full curve, poor fit]"
12,Cc1ccc(Nc2ccc([N+](=O)[O-])nc2[N+](=O)[O-])cc1,inactive
13,COC(=O)C(CC(=O)c1ccc(Br)cc1)n1ccnc1 (stereo not drawn),"inconclusive: 12.6 µM [inhibitor, single point]"
14,NC(=S)NN=C1CSSC1,"inconclusive: 28.2 µM [inhibitor, single point]"
15,Cc1ccc(NC(=O)c2cnn(-c3ccccc3)c2C)c(C)c1,inactive
16,COc1ccc2c(CN(C)c3ccccc3)cc(=O)oc2c1,inactive
17,CCOC(=O)c1sc(N)c(C(=O)Nc2ccccc2OC)c1C,"inconclusive: 5.62 µM [inhibitor, full curve, poor fit]"
18,COc1ccc(C2=Nn3c(nnc3-c3ccco3)SC2)cc1,"inconclusive: 20 µM [inhibitor, single point]"
19,Cc1ccc(Nc2c([N+](=O)[O-])c(=O)oc3ccccc23)cc1C,"inconclusive: 31.6 µM [inhibitor, single point]"
20,Cc1ccc(/C=C2\SC(=S)N(CCC(=O)NNS(=O)(=O)c3ccccc3)C2=O)cc1,"inconclusive: 20 µM [inhibitor, single point]"
21,COc1ccc(-n2nc3c(N4CCC(C(=O)NCc5cccc(C)c5)CC4)nnc(C)c3c2C)cc1,"inconclusive: 6.31 µM [inhibitor, single point]"
22,O=C(C1CC1)N1CCc2cc(S(=O)(=O)N3CCOCC3)ccc21,inactive
23,CCn1c2ccccc2c2cc(NC(=O)COC(=O)C3CCC(=O)N3)ccc21 (stereo not drawn),"inconclusive: 11.2 µM [inhibitor, single point]"

row,Compound,Potency
1,Cc1cc2c(cc1C)N(C(=O)CCl)CC(=O)N2,"inconclusive: 35.5 µM [inhibitor, single point]"
2,NC1=NC(c2ccc(Cl)cc2)C(C(=O)c2ccccc2)N1 (stereo not drawn),"inconclusive: 15.8 µM [inhibitor, single point]"
3,O=C(Cn1c(=O)c(=O)n(Cc2ccccc2)c2ccc(Cl)cc21)Nc1ccc(F)cc1F,"inconclusive: 6.31 µM [inhibitor, single point]"
4,COC(=O)c1ccc(NC2(C#N)C(=O)Nc3ccccc32)cc1 (stereo not drawn),"inconclusive: 22.4 µM [inhibitor, single point]"
5,COc1ccccc1CCNC(C)CCc1ccc(O)cc1 (stereo not drawn),inactive
6,CCOC(=O)N1CCN(C(=O)CN(c2ccc(C)cc2C)S(=O)(=O)c2ccccc2)CC1,inactive
7,O=C(NC(=S)Nc1ccc(Cl)cn1)C(c1ccccc1)c1ccccc1,inactive
8,COc1ccc(C(C[N+](=O)[O-])c2c(C)[nH]n(-c3ccccc3)c2=O)cc1 (stereo not drawn),"inconclusive: 11.2 µM [inhibitor, partial curve]"
9,Cc1cc(C)c2nc(NNC(=O)c3cc(-c4cccs4)nc4ccccc34)sc2c1,"inconclusive: 25.1 µM [inhibitor, single point]"
10,NS(=O)(=O)c1ccc(CCNc2nc3c(-c4cccc(F)c4)nnn3c3ccc(Cl)cc23)cc1,"inconclusive: 20 µM [inhibitor, single point]"
11,COc1ccccc1/C=C1\Cc2ccccc2C1=O,inactive
12,CC1=CC(C)(C)N(S(=O)(=O)c2ccc(C)cc2)c2ccc(C)cc21,"inconclusive: 3.16 µM [inhibitor, partial curve, poor fit]"
13,Cn1c(=O)n(C)c2cc(S(=O)(=O)N3CCCc4ccccc43)ccc21,"inconclusive: 22.4 µM [inhibitor, partial curve, poor fit]"
14,Cc1ccc(NC(=O)c2ccc3nc[nH]c3c2)nc1,"inconclusive: 20 µM [inhibitor, single point]"
15,O=[N+]([O-])C1C(c2ccccc2)C12c1ccccc1-c1ccccc12 (stereo not drawn),"inconclusive: 2 µM [inhibitor, full curve, poor fit]"
16,CCCCNC(=O)COC(=O)c1c2c(nc3ccccc13)/C(=C/c1cccs1)CC2,inactive
17,CCOc1ccc(-c2cc(C(F)(F)F)c(C#N)c(SCC(=O)Nc3ccccc3)n2)cc1,active: 12.6 µM
18,COc1cc(-c2c(-c3ccc4c(c3)OCO4)noc2C)ccc1F,"inconclusive: 6.31 µM [inhibitor, single point]"
19,COC(=O)c1ccc(Nc2cc(C)nc3ccc(C)cc23)cc1,"inconclusive: 6.31 µM [inhibitor, full curve]"
20,O=C(CCN1CCc2ccccc2C(c2ccccc2)C1)c1ccc2c(c1)OCCO2 (stereo not drawn),"inconclusive: 20 µM [inhibitor, single point]"
21,COc1ccccc1N1CCN(S(=O)(=O)CCNC(=O)c2cc(OC)c(OC)c(OC)c2)CC1,"inconclusive: 22.4 µM [inhibitor, single point]"
22,COc1ccc2nc(SCC(=O)NC3CCCCC3C)[nH]c2c1 (stereo not drawn),"inconclusive: 6.31 µM [inhibitor, single point]"
